The labels stand for the following.
B1: CPEB3 Ribozyme (parent)
chain: UAACAGGGGGCCACAGCAGAAGCGUUCACGUCGCAGCCCCUGUCAGAUUCUGGUGAAUCUGCGAAUUCUGCUGUAUAUCUC

Read counts are not given, so values of variants with three or more changes are uncertain.

Variants of B1 are the subject of this data set. The data set is described as follows: self-cleavage, relative activity (ratio to wild type); higher = more cleavage; in vitro, sequencing. The method in brief:
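Relative activity compares each variant's cleaved/total read fraction with that of the unmutated ribozyme. To get these fractions, barcoded CPEB3 ribozyme libraries from rounds of error-prone PCR were transcribed with T7 RNA polymerase for 5 hours at 37°C and then given 15 min of DNase I treatment before EDTA was added. The RNAs were reverse transcribed with template switching and sequenced on Illumina, and DNA sequencing linked barcodes to variants. A minimum of 5 reads applied, and three batches were averaged.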
Regarding UAACUGGGGGCCACAGCAGAAGCGUUCACAUCACAGCCCCAGUCAGACUCUGGUGGAUCUGCGAAUUCUGCUGUAUAUCUC, the self-cleavage was determined as 0.15.

With UAACUGGGUGCCACAGCAGAAGCGUUCACGUCGCCGCCCCUGUCAGAUUCUGGUGAAUCUGCGAAUUCUGCUGUAUAUCUC, the self-cleavage came out at 0.07.

For UAACUGGGGGCCACAGCAGAAGCGUUCACGUCACAGCCCCUGUCAGAUCCUGGUGAAUCUGCGAAUUCUGCUGUAUAUCUC, the self-cleavage worked out at 0.48.

With UAACUGGGGGCCACAGCAGAAGCGCUCACGACGCAGCCCCUGUCAGAUUCUGGUGAGUCUGCGAAUUCUGCUGUAUAUCUC, the self-cleavage is 0.14.

For the variant UAACUGGAGGCCACAGCAGAAGCGUUCACGUCGCAGCCCCUGUCAGAUUCUGGUGGAUCUGCGAAUUCUGCUGUAUAUCUC, the self-cleavage came to 0.39.

UAACUGGGGGCCACAGCAGAAGCGUUCACGUCGCAGCUCCUGUCAGAUUCCGGUGAAUCUGCGAAUCCUGCUGUAUAUCUC: the self-cleavage was determined as 0.22.

Regarding UAACUGGGGACCACAGCAGAAGGGUUCACGUCGCAGCCCCUGUCAGAUUCUGGUGAAUCUGGGAAUUCUGCUGUAUAUCUC, the self-cleavage came out at 0.05.

Turning to UAACUGGGGGCCACAGCAGAAACGUUCACGUCGCAGCCCCUGACAGUUUCUGGUGAAUCUGCGAAUACUGCCGUAUAUCUC, the self-cleavage came out at 0.04.

UAACUGGGCGCCACAGCAGAAGCGUUCACGUCGCAGCCCCUGUCAGAUCCUGGUGAAUCUGCGAAUUCUGCCGUAUAUCUC: the self-cleavage stood at 0.07.

As to UAACUGGGUGCCACAGCAGAAGCGUUCACGUCGCAGCCCCUGUCAGAUUCUGGUGAAUCUGCGAAUUCUGCUGCAUAUCUC, the self-cleavage was determined as 0.13.

For the variant UAACUGGGGGCCACAGCAGAAGCGUCCUCGUCGCAGCCCCUGUCAGAUUCUGGUGAAUCUGCGAAUUCUGCUGUAUAUCUC, the self-cleavage was determined as 0.77.

In the case of UAACUGCGGGCCACGGCAGAAGCGUUCACGUCGCAGCCCCUGUCAGAUUCUGGUGAAUCUGCGAAUUCUCCUGUAUAUCUC, the self-cleavage is 0.31.

As to UAACUGGGGGCCACAGCAGAAGCGAUCACGUCGCAGCCCCUGUCAGAUUCUGGUGAAUCUGCGGAUUCUGCUGUAUACCUC, the self-cleavage amounted to 0.13.

Regarding UAACUGGGGGCCACAGCAGAAGCGUUCACGUCGCAGCCCCUGUCAGAUUAUGGAGAAUCUGCGAAUUCUGCUGUAUACCUC, the self-cleavage came to 0.93.

UAACUGGGGGCCACAGCAGAAGCGUUCACGUCGCAGCCCUUGUCAGAUUCUGGUGAAUCUGCGGACUCUGCUGUAUAUCUC: the self-cleavage is 0.14.

For UAACUGGGGGCCACAGCAGAAGCGUUCACGUCGCAGCCCCUGUCAGAUUCUGUUGGAUCUGCGAAUUCUGCUGCAUAUCUC, the self-cleavage is 1.23.

For the variant UAACUGGGGGCCACAGCAGAAGCGUUCACGUCGCAGCCCUUGUCAGAUUCUGGUGAAUCUGCGAAUUCUAGUGUAUAUCUC, the self-cleavage amounted to 0.2.

Take UAACUGGGGGCCACAGCAGAAGCGUUCACGUCGCAGCCGCAGGCAGAUUCUGGUGAAUCUGCGAAUUCUGCAGUAUAUCUC: the self-cleavage came out at 0.08.

Regarding UAACUGGGGGCCACAGCAGAAGCGUACACGUCGCAGCCCCUGUCAGAUUCUGGUUAAUCUGCGCAUUCUGCUGUAUAUCUC, the self-cleavage came out at 0.25.

Consider UAACUGAGGGCCACAGCAGUAGCGUUCACGUCGCAGCCCCUGUCAGAUUCUGGUGAGUCAGCGAAUUCUGCUGUAUAUCUC, for which the self-cleavage came out at 0.21.

Take UAACUGGUGGCCACAGCAGAACCGUUCACGUCGCAGCCCCUGUCAGGUUCUGGUGAAUCUGCGAAUUCAGCUGUAUAUCUC: the self-cleavage was found to be 0.04.

In the case of UAACUGGGGGCCACAGCAGAAGCGUUCACGUCACAGCCCCUGUCAGGUUCCGGUGAAUCUGCGAACUCUGCUGUAUAUCCC, the self-cleavage is 0.13.

On to UAACUGAGGGCCACAGCAGAAGCGUUCACGCCGCAGCCCCUGUCGGAUUCUGGUGAAUCUGCGAAUUCUGCUGUAUAUCUC, for which the self-cleavage stood at 0.07.

With UAACUGUGGGCCACAGCAGAAGCGUUCACGUCGCAGCCCCUGUCAGAAUCUAGUGAAUCUGCGAAUUCUGCUGUAUAUCUC, the self-cleavage is 0.25.

Regarding UAACUGGGGGCCACAGCAGAAGCGUUCACGUCGCAGCCCCUGUGGGAUUCUGGUGAAACUGCGAAUUCUGCUGUAUAUCUC, the self-cleavage amounted to 0.06.

Turning to UAACUGGGAGCCACAGUAGUAGCGUUCACGUCGCAGCCCCUGUCAGAUUCUGGUGAAUCUGCGGAUUCUGCUGUAUAUCUC, the self-cleavage is 0.07.

Turning to UAACUGGGGGCCACAGCAGAAGCGCUCACGUCGCAGCCCCUGUCAGAUUCUGGUGAAUCUGCGAAUUCUGCUGUAUGCCUC, the self-cleavage is 0.08.

Consider UAACUGGUGGCCCCAGCAGAAGCGAUCACGUCGCAGCCCCUGUCAGAUUCUGGAGAAUCAGCGAAUUCUGCUGUAUAUCUC, for which the self-cleavage was found to be 0.05.

Regarding UAACUGGGGGCCACAGCAGAAGCGUUCACGUCGCAGGCCCUGUCAGAUUCUGGUGAAUCAGCGAAUUCUGCUGUAUAUCUC, the self-cleavage came out at 0.25.

In the case of UAACUGUGGGCCACAGCAGAAGCGUUCACGUCGCAGCCCCUGUCAGUUUCUGGUGGAUCUGCGAAUUCUGCUGUAUACCUC, the self-cleavage was 0.08.

In the case of UAACUGGGGGCCACAGCACAAGCGCUCACGCCGCAGCCCCUGUCAGUUUCUGGUGAAUCUGCGAAUUCUGCCGUAUAUCUC, the self-cleavage came to 0.05.

Regarding UAACUGGGUGCCACAGCAGAAGCGUUCACGUCGCAGCCCCUGUCAGAUACUGGUGAAUCUGCGAAUCCUGCUGUAUAUCUC, the self-cleavage was found to be 0.06.

On to UAACUGGGGGCCACAGCAGAAGCGUUCACGUCGCAGCCCCUGUUAGAUUCUGGUGAAUCUGCGAAUUCUGCAGAAUAUCUC, for which the self-cleavage was found to be 0.37.

As to UAACUGGGGGCCACAGCAGAAGCAUUCACGUCGCAGCCCCUGUCAGAUUCUGGCGAAUCUGCGAAUUCUGCUGUAUAUCAC, the self-cleavage was determined as 0.08.

For the origin of these results see the RNAGym collection of RNA variant scans (doi:10.1093/nar/gkz1192).
